Laboratory results published in paper PMC4336329 (PLoS ONE, 2015).
About 2,200 (0.71%) of roughly 310,000 compounds showed an effect of 50% or more. Effects have a minus sign here. Some of the results follow.

What follows are compounds tested against human ether-à-go-go-related gene (hERG) potassium channel (human, UniProt Q12809) (assay: primary screen, population patch clamp on CHO cells stably expressing hERG).
Sequence of human ether-à-go-go-related gene (hERG) potassium channel (Q12809 whole entry, looked up): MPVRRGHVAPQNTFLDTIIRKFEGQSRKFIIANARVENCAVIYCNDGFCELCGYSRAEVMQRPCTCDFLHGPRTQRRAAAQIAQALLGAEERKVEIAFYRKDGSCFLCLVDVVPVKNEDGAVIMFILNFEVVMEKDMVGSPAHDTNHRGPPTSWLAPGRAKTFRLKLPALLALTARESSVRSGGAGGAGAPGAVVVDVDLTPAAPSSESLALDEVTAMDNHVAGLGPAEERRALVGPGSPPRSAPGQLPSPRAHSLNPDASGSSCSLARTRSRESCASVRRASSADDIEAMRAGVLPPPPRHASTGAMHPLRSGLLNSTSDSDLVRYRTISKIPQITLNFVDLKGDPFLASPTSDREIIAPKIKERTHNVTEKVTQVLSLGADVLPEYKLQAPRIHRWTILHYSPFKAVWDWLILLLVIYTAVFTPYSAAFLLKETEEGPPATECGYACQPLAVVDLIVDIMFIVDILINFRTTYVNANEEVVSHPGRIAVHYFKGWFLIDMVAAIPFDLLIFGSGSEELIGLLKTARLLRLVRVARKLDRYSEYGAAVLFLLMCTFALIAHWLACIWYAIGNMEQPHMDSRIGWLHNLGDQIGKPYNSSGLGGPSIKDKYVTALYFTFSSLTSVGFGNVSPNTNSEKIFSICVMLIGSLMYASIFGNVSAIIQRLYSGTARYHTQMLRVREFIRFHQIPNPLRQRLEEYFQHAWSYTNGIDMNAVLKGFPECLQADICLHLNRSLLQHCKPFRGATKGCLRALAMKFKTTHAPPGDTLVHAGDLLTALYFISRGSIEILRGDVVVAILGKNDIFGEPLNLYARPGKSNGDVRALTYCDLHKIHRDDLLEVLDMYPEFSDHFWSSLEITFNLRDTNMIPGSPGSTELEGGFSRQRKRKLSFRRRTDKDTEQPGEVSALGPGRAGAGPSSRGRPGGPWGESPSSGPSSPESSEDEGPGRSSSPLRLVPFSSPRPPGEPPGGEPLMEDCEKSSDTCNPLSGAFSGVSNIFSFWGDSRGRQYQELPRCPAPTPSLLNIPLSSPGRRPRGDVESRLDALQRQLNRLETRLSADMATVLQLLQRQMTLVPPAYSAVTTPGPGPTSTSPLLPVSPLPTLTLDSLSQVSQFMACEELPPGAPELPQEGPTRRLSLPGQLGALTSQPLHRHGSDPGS
COc1cccc(SCc2noc(C(=O)NCC3CCCO3)c2C(=O)O)c1 (stereo not drawn) was tested, and the “hERG current change (%, negative = inhibition) at 1uM” value was 12.4%. In the case of CC(NC(=O)c1ccc(S(=O)(=O)C(F)F)cc1)c1ccccc1 (stereo not drawn), the “hERG current change (%, negative = inhibition) at 1uM” value is reported as 8.61%. For CC(=O)Nc1ccc(S(=O)(=O)N2CCc3c(Cl)cccc3C2)cc1, the “hERG current change (%, negative = inhibition) at 1uM” value was 11.5%. In the case of CC(C)(C)NC(=O)C(c1ccc(O)cc1)N(C(=O)Cn1nnc(-c2ccc(F)cc2)n1)c1ccccc1F (stereo not drawn), the “hERG current change (%, negative = inhibition) at 1uM” value is reported as 9.27%. In the case of CN(C)c1ccc(NC(=O)COC(=O)Cn2nnc3ccccc32)cc1, the “hERG current change (%, negative = inhibition) at 1uM” value is reported as -6.97%. Cc1cc(C)cc(OCC(=O)NNC(=O)CCN2C(=O)c3ccccc3C2=O)c1 was tested, and the “hERG current change (%, negative = inhibition) at 1uM” value was 11.4%. In the case of Cc1cccc(CCNC(=O)CCc2nnc(CCc3ccccc3)o2)n1, the “hERG current change (%, negative = inhibition) at 1uM” value is reported as 12.1%. In the case of Clc1ccc(OCc2cc(-c3ccccc3)no2)c(Cl)c1, the “hERG current change (%, negative = inhibition) at 1uM” value is reported as 12.3%. CN(C)S(=O)(=O)c1cccc(NC(=O)COC(=O)COc2ccc(Br)cc2)c1 was tested, and the “hERG current change (%, negative = inhibition) at 1uM” value was -6.16%. With COc1cccc(C(=O)NNC(=O)c2ccccc2)c1 the “hERG current change (%, negative = inhibition) at 1uM” value was 7.51%. With CCC(NC(=O)OC(C)(C)C)C(=O)Oc1cc(C)cc2oc(=O)c3c(c12)CCC3 (stereo not drawn) the “hERG current change (%, negative = inhibition) at 1uM” value was -4.06%. For Cc1noc(C)c1COC(=O)Cc1ccc(Cl)c(Cl)c1, the “hERG current change (%, negative = inhibition) at 1uM” value was 15.4%. With O=C(COC(=O)CNS(=O)(=O)c1c(Cl)cccc1Cl)Nc1ccccc1Sc1ccccc1 the “hERG current change (%, negative = inhibition) at 1uM” value was 9.73%. With CCOC(=O)c1[nH]c(C)c(C(=O)Nc2cc(Cl)ccc2C)c1C the “hERG current change (%, negative = inhibition) at 1uM” value was 10.2%. With Cl.N=c1c2c(n(Cc3ccc(Cl)cc3)c3c1CCC3)CCC2 the “hERG current change (%, negative = inhibition) at 1uM” value was 8.99%. In the case of Cc1ccc2nnnc(-c3ccccc3)c2c1, the “hERG current change (%, negative = inhibition) at 1uM” value is reported as 2.74%. COc1ccc(Cl)cc1S(=O)(=O)Nc1cccc(C(=O)O)c1 was tested, and the “hERG current change (%, negative = inhibition) at 1uM” value was 5.17%. For Cc1nn(CC(=O)N2CCN(S(=O)(=O)c3ccccc3)CC2)c(C)c1[N+](=O)[O-], the “hERG current change (%, negative = inhibition) at 1uM” value was 5.34%. In the case of Cc1cc(C(=O)CSc2nnc(NCc3ccccc3)s2)c(C)n1C, the “hERG current change (%, negative = inhibition) at 1uM” value is reported as 7.29%. In the case of Cc1cc(C)n(S(=O)(=O)c2cccc(Cl)c2Cl)n1, the “hERG current change (%, negative = inhibition) at 1uM” value is reported as -2.48%. For Cn1c(CNC(=O)c2ccco2)nnc1SCC(=O)N1CCN(c2ccccc2)CC1, the “hERG current change (%, negative = inhibition) at 1uM” value was 12.4%. With CCN1CCN(C(=O)/C(=C/c2cccs2)NC(=O)c2ccc(C)c(C)c2)CC1 the “hERG current change (%, negative = inhibition) at 1uM” value was -83.5%. COc1ccc(CCNC(=O)C(=O)Nc2ccc3c(c2)OCCO3)cc1OC was tested, and the “hERG current change (%, negative = inhibition) at 1uM” value was 14.4%. COCCNC(=O)Cn1cc(/C=C2\C(=O)NC(=O)N(c3ccccc3F)C2=O)c2ccccc21 was tested, and the “hERG current change (%, negative = inhibition) at 1uM” value was 9.47%.
